This is one part of the list. At the low end of the ranking, values are background and their order means little.

The values below come from article PMC5892938.

The assay concerns the target GST-SBP-SLBP (stem-loop binding protein) (UniProt Q14493). The assay can be described thus: targeted RNA Bind-n-Seq.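 Note: DESeq read counts versus GST-SBP nonspecific binding control pulldown.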 Particulars: RBNS binding buffer: 25 mM Tris pH 7.5, 150 mM KCl, 3 mM MgCl2, 0.1% Tween, 0.5 mg/mL BSA, 1 mM DTT; 27 nM protein, 750 pM RNA pool; temperature not stated; high values mean tight binding.
In the case of “GGUCACGUCUCAAUCAACUCAUCUCCAGGAGUUUACUCCUGCAAAUUCAACAGCUCGCAGUCAAG”, the binding signal (log2 fold change) is 0.0961.

Regarding “GGUCACGUCUCAAUCAACUCUUCCUCCAGGGAAAACCCUGGUUUUCUCAACAGCUCGCAGUCAAG”, the binding signal (log2 fold change) was determined as 0.0178.

Consider “GGUCACGUCUCAAUCAACUCUUAAGAGGGGGGGAAAACCCCUUUGCCCUCAUCGUCAACAGCUCGCAGUCAAG”, for which the binding signal (log2 fold change) was 0.171.

For “GGUCACGUCUCAAUCAACUCAAUCCCAGGAGUUUCCUCCUGCAUACUCAACAGCUCGCAGUCAAG”, the binding signal (log2 fold change) stood at 0.0816.

As to “GGUCACGUCUCAAUCAACUCCUUCGAGGGGGGGAAAACCCCUUUACCCUCUUCAUCAACAGCUCGCAGUCAAG”, the binding signal (log2 fold change) worked out at 0.429.

With “GGUCACGUCUCAAUCAACUCGCACGAGGGGGGGAAAACCCCUUUACCCUCAACAUCAACAGCUCGCAGUCAAG”, the binding signal (log2 fold change) is -0.433.

In the case of “GGUCACGUCUCAAUCAACUCUUUUUCAGGAGUUUUCUCCUGUUAUGUCAACAGCUCGCAGUCAAG”, the binding signal (log2 fold change) was 0.129.

As for “GGUCACGUCUCAAUCAACUCUACUCCAGGAGUUUCCUCCUGUAUACUCAACAGCUCGCAGUCAAG”, the binding signal (log2 fold change) was found to be 0.136.

On to “GGUCACGUCUCAAUCAACUCAACUCCCAGGGAAAACCCUGGCAAUUUCAACAGCUCGCAGUCAAG”, for which the binding signal (log2 fold change) is -0.171.

With “GGUCACGUCUCAAUCAACUCAAUCCCCAGGGAAAUCCCUGGUAAACUCAACAGCUCGCAGUCAAG”, the binding signal (log2 fold change) was -0.195.

Consider “GGUCACGUCUCAAUCAACUCUAUCUCCAGGGAAAGCCCUGGUAUUUUCAACAGCUCGCAGUCAAG”, for which the binding signal (log2 fold change) is -0.141.

In the case of “GGUCACGUCUCAAUCAACUCAAUUCCAGGAGUUUACUCCUGUAUACUCAACAGCUCGCAGUCAAG”, the binding signal (log2 fold change) was 0.157.

“GGUCACGUCUCAAUCAACUCUUCUUCCAGGGAAAGCCCUGGUAAACUCAACAGCUCGCAGUCAAG”: the binding signal (log2 fold change) was -0.221.

With “GGUCACGUCUCAAUCAACUCAUUUUCAGGAGUUUUCUCCUGCUAUCUCAACAGCUCGCAGUCAAG”, the binding signal (log2 fold change) came out at 0.208.

For “GGUCACGUCUCAAUCAACUCAAAAGAGGGGGGGAAAACCCCUUUACCCUCCAAAUCAACAGCUCGCAGUCAAG”, the binding signal (log2 fold change) was 0.159.

As for “GGUCACGUCUCAAUCAACUCAACUUCCAGGGAAAACCCUGGUUUUCUCAACAGCUCGCAGUCAAG”, the binding signal (log2 fold change) worked out at 0.0504.

For the sequence “GGUCACGUCUCAAUCAACUCUUCCCCCAGGGAAAUCCCUGGUAUAUUCAACAGCUCGCAGUCAAG”, the binding signal (log2 fold change) is -0.0643.

For “GGUCACGUCUCAAUCAACUCUAUCUCCAGGGAAAACCCUGGCUAUCUCAACAGCUCGCAGUCAAG”, the binding signal (log2 fold change) is -0.049.

For “GGUCACGUCUCAAUCAACUCUAUCCCCAGGGAAAUCCCUGGCAAUUUCAACAGCUCGCAGUCAAG”, the binding signal (log2 fold change) is -0.14.

Regarding “GGUCACGUCUCAAUCAACUCAUCCUCCAGGGAAACCCCUGGUAUUUUCAACAGCUCGCAGUCAAG”, the binding signal (log2 fold change) was 0.00703.

On to “GGUCACGUCUCAAUCAACUCUUUUCCAGGAGUUUCCUCCUGCAUAUUCAACAGCUCGCAGUCAAG”, for which the binding signal (log2 fold change) was 0.067.

As for “GGUCACGUCUCAAUCAACUCUCAAGAGGGGGGGAAAACCCCUUUACCCUCCCAUUCAACAGCUCGCAGUCAAG”, the binding signal (log2 fold change) is 0.0144.

As to “GGUCACGUCUCAAUCAACUCAAUUCCAGGAGUUUUCUCCUGCAUACUCAACAGCUCGCAGUCAAG”, the binding signal (log2 fold change) was 0.103.

Consider “GGUCACGUCUCAAUCAACUCUAAAGAGGGGGGGAAAACCCCUUUGCCCUCCAAAUCAACAGCUCGCAGUCAAG”, for which the binding signal (log2 fold change) stood at 0.218.

With “GGUCACGUCUCAAUCAACUCAUUUCCAGGAGUUUUCUCCUGCUUUUUCAACAGCUCGCAGUCAAG”, the binding signal (log2 fold change) was determined as 0.0331.

Turning to “GGUCACGUCUCAAUCAACUCUCCUGAGGGGGGGAAAACCCCUUUACCCUCUAUAUCAACAGCUCGCAGUCAAG”, the binding signal (log2 fold change) was found to be 0.0841.

Consider “GGUCACGUCUCAAUCAACUCAUCUCCAGGAGUUUACUCCUGUUAAUUCAACAGCUCGCAGUCAAG”, for which the binding signal (log2 fold change) was 0.0263.

For “GGUCACGUCUCAAUCAACUCUUUUUCCAGGGAAACCCCUGGCUAACUCAACAGCUCGCAGUCAAG”, the binding signal (log2 fold change) came out at 0.268.

Turning to “GGUCACGUCUCAAUCAACUCAUUUUCAGGAGUUUCCUCCUGCAUAGUCAACAGCUCGCAGUCAAG”, the binding signal (log2 fold change) is 0.135.

Take “GGUCACGUCUCAAUCAACUCAACUCCCAGGGAAACCCCUGGCUUUUUCAACAGCUCGCAGUCAAG”: the binding signal (log2 fold change) is -0.289.

As for “GGUCACGUCUCAAUCAACUCUUUCCCCAGGGAAAUCCCUGGUUAAUUCAACAGCUCGCAGUCAAG”, the binding signal (log2 fold change) is -0.03.

With “GGUCACGUCUCAAUCAACUCAAUCUCCAGGGAAACCCCUGGCUAUUUCAACAGCUCGCAGUCAAG”, the binding signal (log2 fold change) worked out at 0.00273.

For the sequence “GGUCACGUCUCAAUCAACUCUUCUCCCAGGGAAACCCCUGGUAAUGUCAACAGCUCGCAGUCAAG”, the binding signal (log2 fold change) was 0.0213.

As to “GGUCACGUCUCAAUCAACUCUUCCCCAGGAGUUUACUCCUGUAUAUUCAACAGCUCGCAGUCAAG”, the binding signal (log2 fold change) was -0.211.

Turning to “GGUCACGUCUCAAUCAACUCAGUUUCAGGAGUUUACUCCUGCUAUUUCAACAGCUCGCAGUCAAG”, the binding signal (log2 fold change) is -0.119.

“GGUCACGUCUCAAUCAACUCCAUAGAGGGGGGGAAAACCCCUUUACCCUCAUCCUCAACAGCUCGCAGUCAAG”: the binding signal (log2 fold change) amounted to 0.286.

“GGUCACGUCUCAAUCAACUCAAUCUCCAGGGAAACCCCUGGCAAAUUCAACAGCUCGCAGUCAAG”: the binding signal (log2 fold change) is 0.253.
